The target of experiment [1] is T1, human serum albumin (HSA) (human, UniProt P02768 25-609).
T1 construct: Immobilized on sensor chips to capture ABD (PP013) fusions
In words: QCM (Attana A200); capture on immobilized HSA.

The target of experiment [2] is T2, HMGB1(disulfide), disulfide linked form of full-length HMGB1 (HMGB1C23-C45C106h) (rat, UniProt P63159 1-215, disulfide C23-C45; C106 reduced).
T2 construct: unlabelled in Biacore and Attana; also called b-HMGB1(disulfide)
T2 sequence: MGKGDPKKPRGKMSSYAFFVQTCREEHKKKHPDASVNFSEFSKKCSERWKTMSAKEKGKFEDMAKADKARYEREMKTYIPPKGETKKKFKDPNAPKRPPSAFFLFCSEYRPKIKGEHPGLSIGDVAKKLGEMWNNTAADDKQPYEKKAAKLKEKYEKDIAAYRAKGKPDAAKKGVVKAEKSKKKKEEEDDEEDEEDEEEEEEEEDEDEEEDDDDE
In words: QCM (Attana A200); polypeptide captured on HSA, HMGB1(disulfide) injected; 1:1 or 1:2 model, average KD. On the procedure: (§1) Binding analysis: The Attana A200® biosensor was used to characterize interactions between the dimeric polypeptides (SEQ ID NO:38-48) and HMGB1(red) under reducing conditions and/or HMGB1(disulfide) under non-reducing conditions. The monomeric ZA3812 (SEQ ID NO:35) was included for comparison. The experiment was performed as a capture assay, in which HSA was immobilized on Attana's sensor chip Low-NonSpecific-Binding (LNB). Immobilization was performed using amine coupling. The instrument has two sensor surfaces and HSA was immobilized on both surfaces. Around 110 Hz of HSA was stably immobilized on the surfaces.
(§2) In the kinetic experiment, HBS-EP+/−2 mM DTT was used as running buffer and the flow rate was 25 μl/min at 22° C. In each cycle, one polypeptide was tested against one concentration of HMGB1. […] The analyte HMGB1(reduced) was diluted in HBS-EP+2 mM DTT within a concentration range of 1.33 to 21.4 μg/ml, and the analyte HMGB1(disulfide) was diluted in HBS-EP buffer within a concentration range of 0.62 to 10 μg/ml. Both analytes were subsequently injected for 84 s over both channel A and B, where channel B was used as a blank surface for curve subtraction. Buffer injections were also made for surface subtractions. After dissociation, the surfaces were regenerated with a 30 s injection of 100 mM HCl followed by a 30 s injection of 20 mM NaOH. Data was collected by Attester Software and subsequently processed in the Evaluation Software. To calculate the kinetic parameters (kₐ and kd) and affinity constant (KD), the experimental data were fitted using a 1:1 or a 1:2 binding model.
(§3) Binding analysis of dimeric polypeptides targeting HMGB1: The interactions of a set of dimeric polypeptides, as well as one monomeric polypeptide, with HMGB1(reduced) and/or HMGB1(disulfide) were analyzed using an Attana A200® biosensor instrument by injecting various concentrations of HMGB1 over a surface containing captured polypeptides in fusion with ABD bound by immobilized HSA.

Experiment [3] concerns the target T2, HMGB1(disulfide), disulfide linked form …. In words: QCM (Attana A200); polypeptide captured on HSA, HMGB1(disulfide) injected; 1:1 or 1:2 model, relevant kd (most represented). Here is the method:
as §1, §2, §3

Experiment [4] deals with T3, HMGB1(red), fully reduced form of full-length HMGB1 (HMGB1C23hC45hC106h) (rat, UniProt P63159 1-215, all cysteines reduced (C23h, C45h, C106h)).
T3 construct: Produced by HMGBiotech; also called HMGB1(reduced); b-HMGB1(red)
T3 sequence: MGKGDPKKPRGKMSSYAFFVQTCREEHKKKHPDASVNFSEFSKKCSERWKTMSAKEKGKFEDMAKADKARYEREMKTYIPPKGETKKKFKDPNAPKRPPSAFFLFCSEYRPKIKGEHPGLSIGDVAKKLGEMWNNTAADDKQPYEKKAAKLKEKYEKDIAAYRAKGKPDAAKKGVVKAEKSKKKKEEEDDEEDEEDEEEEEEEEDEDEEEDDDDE
The experiment in a line: QCM (Attana A200); polypeptide captured on HSA, HMGB1(red) injected, 2 mM DTT; 1:1 or 1:2 model, relevant kd (most represented). Here is the method:
as §1, §2, §3

In experiment [5] the target is T3, HMGB1(red), fully reduced form of …. The experiment in a line: QCM (Attana A200); polypeptide captured on HSA, HMGB1(red) injected, 2 mM DTT; 1:1 or 1:2 model, average KD. On the procedure: as §1, §2, §3
Experiment [6] concerns the target T2, HMGB1(disulfide), disulfide linked form …. In words: SPR (Biacore 2000); target immobilized on CM5, His6-Z variant injected 50-1350 nM; 1:1 model. Here is the method: (§4) Binding analysis of mutated Z variants: A binding analysis was performed using a Biacore 2000 instrument. All alanine mutated Z variants, together with the original Z variant ZH 01, were analyzed against GST-boxA(red), HMGB1(red), boxA(disulfide) and HMGB1(disulfide). The immobilizations and Biacore analyses were performed essentially as described in Example 3. However, in these analyses, the different targets were directly coupled to separate flow cells of different CM5 chip surfaces and a flow rate of 30 μl/min was used. The ligand immobilization levels on the surfaces were 1410 RU for GST-boxA(red), 1380 RU for HMGB1(red), 540 RU for boxA(disulfide) and 2900 RU for HMGB1(disulfide). The analytes, i.e. the Z variants, were each diluted in HBS-EP buffer (or in HBS-EP+2 mM DTT for use in analysis with reduced targets GST-boxA(red) and HMGB1(red)), within a concentration range of 50 to 1350 nM and injected for 3 min, followed by dissociation in running buffer for 35 min. No regeneration buffer was used in the analyses. Instead, the dissociation time was enough for all binders to dissociate from the chip surfaces. HBS-EP was used as running buffer for targets boxA(disulfide) and HMGB1(disulfide) while HBS-EP+2 mM DTT was used for reduced targets GST-boxA(red) and HMGB1(red). The dissociation constants were calculated as in Example 3.
(§5) Binding analysis of mutated Z variants: The interaction of HMGB1 with ZH 01 and the 13 mutated variants thereof was analyzed in a Biacore instrument by injecting various concentrations of the Z variants over surfaces containing immobilized GST-boxA(red), HMGB1(red), boxA(disulfide) and HMGB1(disulfide), respectively. A summary of the dissociation constants from the experiments, which were obtained by using a 1:1 interaction model, is given in Table 12.

The target in experiment [7] is T3, HMGB1(red), fully reduced form of …. The description is as above. Here is the method:
as §4, §5

Experiment [8] addresses T4, GST-boxA(red), reduced form of A-box domain of HMGB1 with N-terminal GST tag (human, cysteines reduced).
T4 construct: Used biotinylated (b-GST-boxA(red)) in ELISA; also called b-GST-boxA(red)
Described as above. On the procedure:
as §4, §5

T1 sequence (P02768 25-609 limits assumed): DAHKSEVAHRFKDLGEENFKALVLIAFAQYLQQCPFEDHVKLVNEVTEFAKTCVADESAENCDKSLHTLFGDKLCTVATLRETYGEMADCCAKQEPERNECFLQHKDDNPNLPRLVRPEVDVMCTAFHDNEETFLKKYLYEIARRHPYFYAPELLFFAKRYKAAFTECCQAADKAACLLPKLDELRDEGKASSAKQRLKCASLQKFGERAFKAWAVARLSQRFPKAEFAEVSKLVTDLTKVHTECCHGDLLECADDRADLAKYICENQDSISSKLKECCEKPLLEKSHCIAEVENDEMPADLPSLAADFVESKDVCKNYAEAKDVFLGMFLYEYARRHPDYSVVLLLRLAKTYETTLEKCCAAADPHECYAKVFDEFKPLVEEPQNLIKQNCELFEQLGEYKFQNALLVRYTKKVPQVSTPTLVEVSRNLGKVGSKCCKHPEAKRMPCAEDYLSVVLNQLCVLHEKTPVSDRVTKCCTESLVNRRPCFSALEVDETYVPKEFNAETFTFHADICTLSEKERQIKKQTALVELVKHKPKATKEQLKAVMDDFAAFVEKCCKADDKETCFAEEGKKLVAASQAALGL

B1: ZZA4262, Z(boxB)-L1-Z(boxA)-ABD (designed binder)
chain: AEAKYAKEAWLAEQEIWQLPNLTEAQFQAFILKLIDDPSQSSELLSEAKKLNDSQAPKGAPGGGGSGGGGSGGGGSTSAEAKYAKEDWDAFWEIIWLPNLTDAQQRAFIYKLEDDPSQSSELLSEAKKLNDSQAPKASGSLAEAKEAANAELDSYGVSDFYKRLIDKAKTVEGVEALKDAILAALP
notes: Heterodimer of ZH27 and ZH32 with PP013
Consider B1, for which, in experiment [1], the binding result was “binds”. In experiment [2], this molecule gave a Kd of 5.4 nM. This molecule also came in with a koff in experiment [3] of 0.00098 s⁻¹.

B2: ZZA4053, Z(boxA)-L1-Z(boxA)-ABD (designed binder)
chain: AEAKYAKEDWDAFWEIIWLPNLTDAQQRAFIYKLEDDPSQSSELLSEAKKLNDSQAPKGAPGGGGSGGGGSGGGGSTSAEAKYAKEDWDAFWEIIWLPNLTDAQQRAFIYKLEDDPSQSSELLSEAKKLNDSQAPKASGSLAEAKEAANAELDSYGVSDFYKRLIDKAKTVEGVEALKDAILAALP
notes: Homodimer of ZH27 with PP013
For the molecule B2, the binding result in experiment [1] is on record as “binds”. The results for the dissociation constant Kd in experiment [2] and in experiment [5] were 97 nM and 95 nM, respectively. Besides, the figures for the koff in experiment [4] and in experiment [3] were 0.013 s⁻¹ and 0.00062 s⁻¹, respectively.

B3: ZZA4010, Z(boxA)-L1-Z(boxB)-ABD (designed binder)
chain: VDAKYAKEDWDAFWEIIWLPNLTDAQQRAFIYKLEDDPSQSSELLSEAKKLNDSQAPKGAPGGGGSGGGGSGGGGSTSVDAKYAKEAWLAEQEIWQLPNLTEAQFQAFILKLIDDPSQSSELLSEAKKLNDSQAPKASGSLAEAKEAANAELDSYGVSDFYKRLIDKAKTVEGVEALKDAILAALP
notes: Heterodimer of ZH01 and ZH31 with PP013
As for B3, the binding result in experiment [1] is on record as “binds”. Besides, the Kd came out at 70 nM in experiment [2] and 4.4 nM in experiment [5]. The results for the off-rate (koff) in experiment [4] and in experiment [3] were 0.00055 s⁻¹ and 0.001 s⁻¹, respectively.

B4: His6-tagged ZH15 (ZH 01 W10A), MGSSHHHHHHLQ-[ZH15]-VD (designed binder)
chain: MGSSHHHHHHLQVDAKYAKEDADAFWEIIWLPNLTDAQQRAFIYKLEDDPSQSSELLSEAKKLNDSQAPKVD
Consider B4, for which the dissociation constant Kd in experiment [6] is 12000 nM; in experiment [7], 570 nM.

B5: His6-tagged ZH19 (ZH 01 I17A), MGSSHHHHHHLQ-[ZH19]-VD (designed binder)
chain: MGSSHHHHHHLQVDAKYAKEDWDAFWEIAWLPNLTDAQQRAFIYKLEDDPSQSSELLSEAKKLNDSQAPKVD
For B5, in experiment [6], binding was characterised by a dissociation constant (Kd) of 3100 nM.

B6: His6-tagged ZH24 (ZH 01 R28A), MGSSHHHHHHLQ-[ZH24]-VD (designed binder)
chain: MGSSHHHHHHLQVDAKYAKEDWDAFWEIIWLPNLTDAQQAAFIYKLEDDPSQSSELLSEAKKLNDSQAPKVD
For the molecule B6, the Kd in experiment [6] was 7800 nM; in experiment [7], 680 nM.

B7: His6-tagged ZH25 (ZH 01 Y32A), MGSSHHHHHHLQ-[ZH25]-VD (designed binder)
chain: MGSSHHHHHHLQVDAKYAKEDWDAFWEIIWLPNLTDAQQRAFIAKLEDDPSQSSELLSEAKKLNDSQAPKVD
For B7, binding in experiment [6] was characterised by a dissociation constant (Kd) of 7800 nM.

B8: His6-tagged ZH17 (ZH 01 F13A), MGSSHHHHHHLQ-[ZH17]-VD (designed binder)
chain: MGSSHHHHHHLQVDAKYAKEDWDAAWEIIWLPNLTDAQQRAFIYKLEDDPSQSSELLSEAKKLNDSQAPKVD
Molecule B8 displayed a Kd in experiment [6] of 6800 nM.

B9: His6-tagged ZH26 (ZH 01 E35A), MGSSHHHHHHLQ-[ZH26]-VD (designed binder)
chain: MGSSHHHHHHLQVDAKYAKEDWDAFWEIIWLPNLTDAQQRAFIYKLADDPSQSSELLSEAKKLNDSQAPKVD
Take B9: the Kd in experiment [6] is 2400 nM; in experiment [8], 220 nM; in experiment [7], 110 nM.

B10: His6-tagged ZH18 (ZH 01 W14A), MGSSHHHHHHLQ-[ZH18]-VD (designed binder)
chain: MGSSHHHHHHLQVDAKYAKEDWDAFAEIIWLPNLTDAQQRAFIYKLEDDPSQSSELLSEAKKLNDSQAPKVD
Take B10: the Kd in experiment [6] was determined as 2200 nM; in experiment [8], 370 nM; in experiment [7], 290 nM.

B11: ZZA4261, Z(boxA)-L2-Z(boxB)-ABD (designed binder)
chain: AEAKYAKEDWDAFWEIIWLPNLTDAQQRAFIYKLEDDPSQSSELLSEAKKLNDSQAPKGAPGGGGSTSAEAKYAKEAWLAEQEIWQLPNLTEAQFQAFILKLIDDPSQSSELLSEAKKLNDSQAPKASGSLAEAKEAANAELDSYGVSDFYKRLIDKAKTVEGVEALKDAILAALP
notes: as for B1
With B11, the binding result in experiment [1] was “binds”. In experiment [2], this molecule displayed a Kd of 11 nM. Also, the koff in experiment [3] is 0.0014 s⁻¹.

The values above are taken from patent US20220389066A1 (Affibody, published 2022).
